# The list shows a part of the results.
# Test system: PfHDP1 homeodomain (GST-tagged)
# Experiment: gcPBM binding intensity (ln(normalized median fluorescence intensity)); higher = stronger DNA binding
# Method in brief: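 Plasmodium falciparum DNA-binding domains carrying a GST tag were expressed in E. coli and applied for 1 h, at about 25 μg on average, to an Agilent 4 × 180k array. The array held primer-extended double-stranded 36-bp intergenic genomic probes together with negative controls, and binding took place in 1× PBS with 1% milk, 0.2 mg/ml BSA, 0.5% salmon testes DNA and 0.03% Triton X-100. An Alexa488 anti-GST antibody detected bound protein, and the array was scanned at 488 nm. Binding intensity is taken as the highest Masliner-normalised natural-log median intensity across replicate spots of either probe orientation.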
row,Sequence,gcPBM binding intensity (ln)
1,ATAAAAGAAAACAATAGTACTTTAGTTTTTCTTTTT [XGTACX_site5686],6.14
2,TTAATCTAGAGAAATTGTACATTTTATTAACACAAT [XGTACX_site1190],5.97
3,AAATAACTCATGGGTTGTACTTAAAAAAAAAAAGAT [XGTACX_site4168],6.76
4,ATTTTTTTTTTTTGTTTTTTCTTACAAATTAAATGA [CACACA_negctrl_site1457],6.39
5,AAACCTTTAGAAAATCGTACAAAACATAACCACCTA [XGTACX_site1098],6.7
6,CTCTTGTCATTTTGCACACACACATGGATAGGTTAT [CACACA_site5655],10.8
7,TTTTTTTTTTTTCACGTGCACTATACATATAAGTAA,8.41
8,AACACATACAGACACACACACAAAAAAAAAAAAAAA [CACACA_site6322],6.74
9,ACCCAATTTTTTAGTACACACATATAAATATATAAA [CACACA_site4944],6.86
10,TAAAACATGTTTTTATATATTATTATTATATTTATA [XGTACX_negctrl_site8],6.1
11,TATATTTGGAAACACACACACAAAAAAAAAAAAAAA [CACACA_site2474],6.51
12,ATATTTTCTAATCAATGTACTTATTCTACACATTAA [XGTACX_site5774],6.95
13,ACTACATAAAATGACACACACAAACTTTAAAATTTA [CACACA_site3474],6.42
14,CACCTGCACGATTGCACACAAATATGTTTTGAAGAT [CACACA_site2103],10.2
15,ATATTTTATGTAAAGGTGCAAAACAACATTAAAAAA,9.97
16,ATATGACTTAAATATGTGCGCATTTTTTTTTTTTTT,7.36
17,AGGATATATAATTAAGTGCATTAATTCAAAATAAAA [GTGCAC_site9702],9.67
18,CATATATAAATCATGTGTACGTATTGAGTATCTACT [XGTACX_site6278],6.56
19,ATAAGATATGTATATACACACATTTATTTACCTATA [CACACA_site7521],6.67
20,TTATTATTTTATAACACACACATATATATTATATCT [CACACA_site1434],6.8
21,CTTTAAACCCTGAACACACACAAATACAGACAAAAA [CACACA_site247],6.99
22,AATATTGTATATAATAAACACACAATATTAAAAATA [CACACA_site8262],6.45
23,GTATTTTAATATAAATGTACATAAATGTTATATATA [XGTACX_site3475],6.4

row,Sequence,gcPBM binding intensity (ln)
1,TACACAAGAAAATTCACACACACACGGATATTTATA [CACACA_site7765],6.69
2,GTATCGAAGTAAATACGTACTTAAATATGTTTAAAA [XGTACX_site1353],6.14
3,ACGTACTGCCCTAAAGTGCATATATAATATAAACGA [GTGCAC_site9911],8.07
4,TTTTATTTGACAAGCACACACTTAAATATATTTATA [CACACA_site7557],6.88
5,ACATAAGAAGTTATATGTACATATATTTTTTAAATT [XGTACX_site8078],6.33
6,AAAACATTTTCAAACTGTACACATAGAACTATGCAT [XGTACX_site4087],6.46
7,CATTAATAACAAAGTTGTACAAGATAATATTATATG [XGTACX_site6832],7.42
8,ATCTAGCCATTTTTTAGTACACATAAATAAAAAAAA [XGTACX_site1257],6.4
9,TAAACAAAATATATATGTACATATATATATATATAT [XGTACX_site6502],9.28
10,AAATTCTTAACCCAACGTACATATAATAAATTCTTA [XGTACX_site8538],6.12
11,TAAACCAAACAATTATGTATAAGATGTATATATATA [GTGCAC_negctrl_site438],8.04
12,AAAAAAAAAAATATATTATTTTACTTGTTTATTTTA [CACACA_negctrl_site1447],5.8
13,AAAAAGAAGAATATATGTACACAAAATTTATGAGTT [XGTACX_site8609],6.45
14,CATTATAAGAAACACACACACATATATATATATATA [CACACA_site1051],9.43
15,TTTTTTTTTTCTTAGGTGCAAAAAATAAGTATATAT [GTGCAC_site9394],9.72
16,AAAAAAAAAAGAACCCGTACATAAATAATATATATA [XGTACX_site164],6.87
17,TATAGTTATATTAGAAGTACTTCATTTTAACATATT [XGTACX_site7101],6.08
18,GAAACATAAAAATATATTGAAATAGTATCATGGGTA [CACACA_negctrl_site352],6.54
19,AAAAAAAAAAAAGAAACACACACATTTGTATATAAT [CACACA_site8648],6.64
20,TAAAAAATAAAATAATGTACATATGAATTATATATT [XGTACX_site8398],6.44
21,TTTTTTTTGTATTAATGTACATATAACTTTTTTTTT [XGTACX_site7903],6.29
22,TTAATTACATGTTATTGTACGTATTTTCTATCTATC [XGTACX_site844],6.45
23,GGTAGGTGGATATATACACACATATATTATAGATAT [CACACA_site7021],7.09

row,Sequence,gcPBM binding intensity (ln)
1,ATCGAGAAAAATAAAATAATACAATTTCTTTAAATA [XGTACX_negctrl_site162],5.88
2,CACAGATATATACATACACACATATATACACATATA [CACACA_site6323],6.94
3,ATTCCCTTAAGAAACTGTACAAAACTTTCTTCGATT [XGTACX_site775],6.51
4,GTGTGTGTATATATTTGTACATATATTTAAACATAT [XGTACX_site1074],7.66
5,TATACATAAATTATATGTACTGAAAATACATAATTA [XGTACX_site3626],5.98
6,GTTTTAAAATTAAATATTATGGCATAATTCAAGAAA [GTGCAC_negctrl_site721],6.42
7,AAAATTTTTTAACACTGTACTTGTAATATTAAAACT [XGTACX_site8369],7.02
8,AAATGCGCCATGTGTACACATATATATATATATATA [CACACA_site4649],9.4
9,TTAAATAAGTTCTTCACACATATATATATATATATA [CACACA_site4742],9.41
10,TACATATATAAAAATTGTACACTTCATAAGAAAAAA [XGTACX_site4347],7.56
11,CATACAGACGAACACACACACATATAAATATAAATA [CACACA_site6443],6.86
12,TATTATTTTTTTTTTTGTACATATATGTATATATAT [XGTACX_site8471],6.44
13,TATAATAAAATTGGTAGTACATTAATTTATGTATAG [XGTACX_site3059],6.23
14,AACCACATGGTGTAATGTACATTACCTTAACAATAA [XGTACX_site3055],6.77
15,AAATATTATATATATACACACACACCGGCATGCACA [CACACA_site7916],7.56
16,AAGGATTACAAAAAAAGTACAAATGGATTTTTTCCC [XGTACX_site8905],6.22
17,AAAAAAATTCTTGGCGCACACACTTTAAAAATTAAA [CACACA_site597],6.5
18,CTTACAAATAAACAACGTACTTATTCGAATTATGCT [XGTACX_site2431],6.41
19,GCATAAAATATGATCGCACACTGTTTAAAATACTTA [CACACA_site828],6.46
20,ATATTACTAATTAATGGTACACGTTATAATAAACTA [XGTACX_site7051],6.45
21,AGGTAGTTCTGTATCACACACATATAAATATAAATA [CACACA_site7110],6.77
22,AAAATATATACAAGCAAACACACGTAATATATATTA [CACACA_site2152],6.66
23,ATACCTTCTTCATTCACACATATACGTAAAATGTTC [CACACA_site5657],7.04

row,Sequence,gcPBM binding intensity (ln)
1,TTTAAACTAGAACAAGTGCAGATATGTATAATAATA,7.27
2,TTTTATTTTGGAACGTGTACATATAATTATTTATTG [XGTACX_site8094],6.52
3,TATTTTTAGAAAATAAAGAAGGAGAATTGAAAATAT [CACACA_negctrl_site361],6.56
4,AAGAAAAGATATATATATAAATATATATATATATAT [TGCATGCA_negctrl_site353],9.09
5,ATTTATTTTTATCAAGCATGCATAAAAAATAAATTA [TGCATGCA_site440],6.53
6,TTTATACAATTAGACACACACAAAAAGTATAAATAT [CACACA_site6637],6.97
7,ATATCACATTCCACGGTACACACTAATAGAAAAATC [CACACA_site9204],6.68
8,GGAACATATGAACTCACACACATTTTCACTTAAATA [CACACA_site3684],6.54
9,AATATTTATAAATTTACACACACACCGGTGAACATA [CACACA_site8579],6.97
10,TAAAATGATAAATGAATGTGATCATTTTATAAAATA [CACACA_negctrl_site674],6.3
11,ATATATCACATGAACATTAAAAAAAAAAAAGAGGGG [TGCATGCA_negctrl_site187],6.24
12,TTTAAAAAAAAAAAAAAAAATTCTACATGTAATTTA [CACACA_negctrl_site1205],5.76
13,TGACATAAATTTAATACACACACAAAGAAAAAAAAA [CACACA_site9354],6.83
14,TGATTAATAGCAGGTAGTACTATAATAATATAAATA [XGTACX_site2776],6.55
15,GTTCCATATATTACATGTACATATTTTTACATTTAA [XGTACX_site660],7.5
16,AGAAGAAAAGAAATATGTACATAAACGTCTGAACTA [XGTACX_site1699],6.62
17,ATAACAAATATGATAGCATGCTACATATTACAACTT [TGCATGCA_site524],6.81
18,AAGATGAACCTTTACACATGCAACAAAAAATATACA [TGCATGCA_site166],7.26
19,ATCAACATTATGTTTAGTACTTAGTGAATTGTTAAT [XGTACX_site4913],6.36
20,ATAAAAAAAAGAAAAACACACACATATATATATATA [CACACA_site8243],9.25

# — the supplement of paper PMC11417369
